System: Anticarsia gemmatalis
Experiment: whole plant or invertebrate
Details: in Glycine max, 48 h, read-out: mortality 2 DAA

CCS(CC)=NC(=O)c1cc(Cl)cc(C)c1NC(=O)c1cc(C(F)(F)F)nn1-c1ncccc1Cl [compound I-11, 2-(3-chloro-2-pyridyl)-N-[2-methyl-4-chloro-6-[(diethyl-λ^4-sulfanylidene)carbamoyl]phenyl]-5-(trifluoromethyl)pyrazole-3-carboxamide]
mortality at 12.5 g/ha: 81%

Reference: patent US20150250174A1, “USE OF N-THIO-ANTHRANILAMIDE COMPOUNDS ON CULTIVATED PLANTS” (BASF SE, priority 2012, published 2015)
